# According to article PMC12040169 (PLOS Biology, 2025):
# The other results are listed elsewhere or left out.
# Tested on: T1, C. trachomatis L2/434/Bu expressing GFP (CTL2-GFP)
# T1 construct: L2/434/Bu GFP intracellular growth in HeLa cells
# Design: species or system HeLa; C. trachomatis total inclusion area by high-content imaging, normalised to DMSO
# Settings: total inclusion area; 28.5 h, 10 µM; inhibitor
# Text: In this process, we also complemented the assay described above with an imaging-based readout (Fig 1B). After measurements of bulk GFP and resorufin fluorescence, cells were fixed, stained with the DNA dye Hoechst, and imaged at a high-content imaging platform to detect chlamydial inclusions (GFP) and host cell nuclei (Hoechst). The total area and number of inclusions in individual wells and the number of nuclei then served as additional proxies for chlamydial growth and host cell viability. […] MICs were calculated as described above.
row,SMILES,% of control remaining
1,CCCCOC(=O)c1c(N)n(-c2ccc(C(=O)O)cc2)c2nc3ccccc3nc12 [CBK265046],118.819
2,CC(C)(C)CC(C)(C)NC(=O)NCCc1cccs1 [CBK038697],86.6225
3,CCn1cncc1C(=O)Nc1ccc(-n2ccnc2C(C)C)cc1 [CBK281379],82.993
4,CCN1CC2(CCN(Cc3ncc[nH]3)CC2)c2ccccc21 [CBK131486],136.914
5,Cn1c(SCC(=O)N2CCN(c3cccc(Cl)c3)CC2)nnc1-c1cccc([N+](=O)[O-])c1 [CBK266264],111.308
6,CN(C)CCn1cnc2c1c(=O)[nH]c(=O)n2Cc1ccccc1 [CBK291235],91.6707
7,O=C(Oc1ccc(F)cc1C(=O)/C=C/c1cccs1)c1ccc([N+](=O)[O-])cc1 [CBK264925],89.3532
8,CCCC(=O)N1CCC[C@H]1Cn1nc(-c2ccc(F)cc2)ccc1=O [CBK284288],81.6368
9,Cc1nc(C)c(CCC(=O)Nc2ccc(N3CCOCC3)cc2)c(=O)[nH]1 [CBK306059],54.5391
10,Cc1cnn(C2CN(CC(=O)N3CCc4sccc4C3)C2)c1 [CBK305097],101.648
11,CCn1c2c(c3cc(S(=O)(=O)c4ccc(C(F)(F)F)cc4)ccc31)CCNCC2 [CBK018453C],0.6718
12,CC1CCN(C(=S)NC2CC3CCC2C3)CC1 (stereo not drawn) [CBK085998],97.0369
13,C=CCNC(=O)N1CC[C@H]2CC(=O)N(Cc3ccc(OC)cc3)CC[C@H]2C1 [CBK288790],109.131
14,Cc1cc(O)n2nc(C)c(-c3ccc(F)cc3)c2n1 [CBK283642],93.3132
15,COc1ccc2[nH]cc(CC3CCNCC3)c2c1 [CBK012779],91.0649
16,COc1ccc(CNC(=O)c2ccccc2NS(=O)(=O)c2cc(Cl)ccc2Cl)cc1 [CBK113964],98.247
17,COC(=O)CNC(=O)c1ccncc1Br [CBK057760],62.9921
18,COc1cc(/C=N/Nc2nc(Nc3ccccc3)nc(Nc3ccccc3)n2)ccc1O [CBK262584],81.9868
19,CCC(C)C(NC(=O)Cc1c[nH]c2ccccc12)C(=O)O (stereo not drawn) [CBK286720],80.2724
20,O=C(C1=C(O)C(=O)N(CCCn2ccnc2)C1c1ccc(Br)cc1)c1ccc2c(c1)OCCO2 (stereo not drawn) [CBK266081],0
21,c1nn(C2CCCCC2)cc1-c1cncn1CCCN1CCCCC1 [CBK281495],65.7777
22,Cc1ccc2nc(O)c(C3=NN(C(=O)CCC(=O)O)C(c4ccco4)C3)c(-c3ccccc3)c2c1 (stereo not drawn) [CBK267544],103.515
23,NC(=O)c1ccc(NC(=O)CCCc2nc(-c3ccccc3Cl)no2)cc1 [CBK268932],114.473
24,COc1ccc(CNCc2ccc(Cl)cc2)cc1OC [CBK263315],106.792
25,Cc1cccc(OC(C)C(=O)Nc2ccc(S(=O)(=O)N3CCOCC3)cc2)c1 (stereo not drawn) [CBK269609],68.336
26,Cc1onc(-c2ccccc2)c1CNC(=O)c1cscn1 [CBK144089],96.708

row,SMILES,% of control remaining
1,O=C(O)c1ccc(NS(=O)(=O)c2cccs2)cc1O [CBK092145],120.279
2,CCOc1ccccc1N(CC(=O)Nc1ccc(C)cc1C)S(C)(=O)=O [CBK263799],104.986
3,O=C1CC(c2ccccc2)CC(NCc2ccccc2)=C1C(=S)Nc1ccccc1 (stereo not drawn) [CBK264491],89.0444
4,COc1ccccc1-c1ccc(CC2(C(=O)NCCc3ccccc3)CCOCC2)cc1 [CBK286516],86.5371
5,Cc1cccc(-c2nc(C3CCCNC3)n3ccccc23)c1 (stereo not drawn) [CBK035528],82.523
6,COc1cccc(CNC(C(=O)O)c2ccc3c(c2)OCO3)c1 (stereo not drawn) [CBK015420D],24.6805
7,O=C(COc1ccc2oc3ccccc3c2c1)c1ccccc1 [CBK268931],102.681
8,Cc1csc(-c2ccc(C(=O)N(C)CCN(C)C)c(N(C)C)n2)c1 [CBK106088],84.3583
9,c1cc(COc2cncc(N3CCCC3)n2)cs1 [CBK115669],111.996
10,N#Cc1ccc(CNC2(Cc3cc(C(=O)N4CCCCC4)on3)COC2)cc1 [CBK289672],110.316
11,CCCc1cc(C(N)=O)c(NC(=O)c2sc3ccccc3c2Cl)s1 [CBK268178],89.9489
12,CN(C(=S)NCc1ccccc1)C1CC[C@@]2(c3ccc(F)cc3)CCN(C)[C@H]2C1 (stereo partly drawn) [CBK003500C],88.2358
13,Cc1cc(N2CCC(c3cc(CCOc4ccc(Cl)cc4)[nH]n3)C2)nc(C)n1 (stereo not drawn) [CBK286119],56.885
14,O=C(CC1CCCO1)N1CCn2c(nnc2-c2cncc(Br)c2)C1 (stereo not drawn) [CBK304762],101.614
15,O=S(=O)(Nc1cccc2[nH]ccc12)c1ccc(F)cc1 [CBK153522],85.5967
16,COc1cc(=O)n(C)c(C)n1 [CBK007924],114.719
17,COCc1nc2n(n1)CC(NC1CCCCc3ccccc31)CC2 (stereo not drawn) [CBK304445],66.1648
18,O=C(c1ccc(F)cc1)[C@H]1CCCN(C(=O)c2n[nH]c3c2CCC3)C1 [CBK282322],90.8761
19,Cc1cc(C)n(C(C)CC(=O)Nc2cccc(OC(C)C)c2)n1 (stereo not drawn) [CBK281538],99.1275
20,CCN(CC)C(=O)C1CCCN(C(=O)Nc2ccc(Cl)cc2)C1 (stereo not drawn) [CBK156136],112.077
21,CCC(Sc1nnc(-c2ccc([N+](=O)[O-])cc2)n1C)C(=O)Nc1ccc(Cl)cc1 (stereo not drawn) [CBK265785],84.2221
22,Nc1nc(/C=C/c2cccs2)nc(-c2ccccc2O)n1 [CBK270033],88.5466
23,CCOc1cc(/C=C2/SC(=S)N(c3cccc(Cl)c3)C2=O)ccc1OCC(=O)O [CBK264966],83.959
24,O=C(O)CCc1ccc(S(=O)(=O)NCc2ccccc2)cc1 [CBK287054],73.6354
25,COc1ccnc(N2CCN(C(=O)c3ccncc3Cl)CC2)n1 [CBK304367],50.8931
